Test results from PubChem BioAssay (NCI).
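Growth conditions: 96-well plates. Treatment: test compound, 48 hours, 5 concentrations. Analysis: linear interpolation between bracketing concentrations; unreached endpoints set to highest concentration. Abbreviation: GI50, concentration required for 50% inhibition of growth. TGI: concentration producing complete growth inhibition.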

tested on: NCI-H322M lung; assay: DTP human tumour cell line panel, 48 h

| SMILES | GI50 [µM] | TGI [µM] |
| --- | --- | --- |
| CCOP(=O)(CC(F)(F)C(F)(F)F)OCC | 16 | 37.5 |
| COc1ccc2c3nc4cc(C)c(C)cc4nc3n(CCN(C)C)c2c1 | 2.41 | 13.2 |
| O=C(Nc1ccc(I)cc1)Nc1nc2ccc([N+](=O)[O-])cc2s1 | 3.13 | 11.7 |
| CN(C)CCNC(=O)OCCCCOc1cc(O)c2c(=O)cc(-c3ccccc3)oc2c1 | 6.64 | 19.8 |
